This is one part of the list.
target: T1, OsWOX13 (Oryza sativa, UniProt Q5QMM3 1-267); assay: protein-binding microarray (RPBM); PBS, 2% BSA, 51.3 ng/ul salmon testes DNA, 50 uM zinc acetate, 200 nM TF, 25 C, 1 h; high values mean tight binding; conditions: protein: recombinant; tags: N-terminal polyhistidine and DsRed monomer fusion (pET32a); label: CyDye5-dUTP incorporated in the synthesized complementary strand; 3' TTTTT single-stranded linker to array surface; dsDNA, one strand shown
T1 sequence: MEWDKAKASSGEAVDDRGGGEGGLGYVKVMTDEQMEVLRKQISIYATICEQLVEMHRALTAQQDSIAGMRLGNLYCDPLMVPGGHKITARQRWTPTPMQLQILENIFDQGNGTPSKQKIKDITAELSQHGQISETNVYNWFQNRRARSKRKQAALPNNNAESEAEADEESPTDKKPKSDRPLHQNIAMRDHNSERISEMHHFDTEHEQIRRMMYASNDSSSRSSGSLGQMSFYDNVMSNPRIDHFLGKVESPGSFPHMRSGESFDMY
Summary of the method: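 Polyhistidine-tagged DsRed fusions of transcription factors, joined at the N-terminus, were expressed in E. coli BL21-CodonPlus and isolated on Ni–NTA. They were incubated at 200 nM for 1 h at 25 °C on a custom Agilent array, double-stranded and BSA-blocked, in PBS with 2% BSA, salmon testes DNA and 50 µM zinc acetate. The binding signal is per-feature fluorescence intensity (arbitrary units) read on an Axon 4000B scanner after washing.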

Sequence	binding signal
AGCTAATACTTAATTAATCACGCGTTAATGGACTGCTCCGCGGAGTCACCTAGTGCAG	26700 fluorescence intensity (a.u.)
ACGATCACCGGACTAATTGACTTTCCCGACTAATAATAAACGGAGTCACCTAGTGCAG	11300 fluorescence intensity (a.u.)
ATTTATTTGATTTAAATGGATCAATTACCCAATTAAATCTCGGAGTCACCTAGTGCAG	32600 fluorescence intensity (a.u.)
ATATATATATATATATATATATATATATAGAGAGAGAGAGCGGAGTCACCTAGTGCAG	10500 fluorescence intensity (a.u.)
GTAAATTACTCCAACCCTTTCTCTCCATGCATCTCACCTCCGGAGTCACCTAGTGCAG	7640 fluorescence intensity (a.u.)
TACTGGTAAGTACCTTTAATTGATTGGGCCCGTATACCTTCGGAGTCACCTAGTGCAG	20500 fluorescence intensity (a.u.)
TTTAATTCATCATAATCTAATAACCGAAAATTTAGTAGTACGGAGTCACCTAGTGCAG	3610 fluorescence intensity (a.u.)
TCAAAATTGGATCAATCCCTGCAATTAGCGATCCACACAGCGGAGTCACCTAGTGCAG	22800 fluorescence intensity (a.u.)
CGTGATGAAGATTAAGGACCTGTTTAGATTGGTGTCATTTCGGAGTCACCTAGTGCAG	13500 fluorescence intensity (a.u.)
TATCATAAATGATCCTACTAATTAGTACTCCTAATATATGCGGAGTCACCTAGTGCAG	19900 fluorescence intensity (a.u.)
CCTAAAATTATTTCTTACTATGATTTGTGATGTCGCGCTTCGGAGTCACCTAGTGCAG	18800 fluorescence intensity (a.u.)
GGTAATGCAAAATGATTATATATCATCTCTTTTCTCCCTCCGGAGTCACCTAGTGCAG	21200 fluorescence intensity (a.u.)
TTTCATCCCTCCAAATTGCCAATCTAATCAAACACTTAAGCGGAGTCACCTAGTGCAG	18100 fluorescence intensity (a.u.)
AATCCATGATTAGCCTATGTGATGCTACAGTAAATATGTGCGGAGTCACCTAGTGCAG	13200 fluorescence intensity (a.u.)
TGTGTAAGTATAACGTTATATGATTAATGATGAACACGCACGGAGTCACCTAGTGCAG	3180 fluorescence intensity (a.u.)
TGATTGATTACACTAATGTGTTCCTTAGCTCATGTCAGCACGGAGTCACCTAGTGCAG	43700 fluorescence intensity (a.u.)
GTTAATAGCCTCATCACTCTAAACTTCCACGACTTGTTTGCGGAGTCACCTAGTGCAG	5850 fluorescence intensity (a.u.)
AATCTGGATTGATAAAGTTTTACTCCCTTCATCCTTAAAACGGAGTCACCTAGTGCAG	8100 fluorescence intensity (a.u.)
ACAAATAATTTTGTCCCAGAAATATCATCGTCGTTAGGGTCGGAGTCACCTAGTGCAG	4240 fluorescence intensity (a.u.)
TGAGCCAATCAATCTGCTTGGTCCAGTGGTACCTGTTAGCCGGAGTCACCTAGTGCAG	18200 fluorescence intensity (a.u.)
AGAGAAAGCAATTAGCCACTAACAGAGAGCAAAGAGGACACGGAGTCACCTAGTGCAG	4410 fluorescence intensity (a.u.)

Sequence	binding signal
GGGCTAATTTGGTTTGAGATCTAAATTAGGCTTGCCAATTCGGAGTCACCTAGTGCAG	28000 fluorescence intensity (a.u.)
TGGTTACAGTTGATAGATCAAACAAGTTGATATGCTGAATCGGAGTCACCTAGTGCAG	3580 fluorescence intensity (a.u.)
ACCTTAATGGACACATCATGCCCAACTAAATCCATATTTGCGGAGTCACCTAGTGCAG	24400 fluorescence intensity (a.u.)
CTCAAAATTAGCTCCAAATTTACGGTTGAAAATTCAAAATCGGAGTCACCTAGTGCAG	6450 fluorescence intensity (a.u.)
TAGTGTGTTAATTTAAATTAAAGTTCTTCCAACTGAATTTCGGAGTCACCTAGTGCAG	33100 fluorescence intensity (a.u.)
GTCATCTTACTTTGATAGTTAATTGTTCCATCTAAAACTTCGGAGTCACCTAGTGCAG	5320 fluorescence intensity (a.u.)
AGGATGGGGATAGGGTTGATTTGTAATAGGGGTATTTTGGCGGAGTCACCTAGTGCAG	5940 fluorescence intensity (a.u.)
ATTTTACCCAAATAGCTTAAACCACAACAGTTTTGGCTAGCGGAGTCACCTAGTGCAG	6050 fluorescence intensity (a.u.)
ATATAGTAAACTAGAACCGGATTGAACGTATCCTAGTACTCGGAGTCACCTAGTGCAG	3200 fluorescence intensity (a.u.)
AGCTAATTAATTCCCACTACTGAGTGCTAATAACTCCCGCCGGAGTCACCTAGTGCAG	46200 fluorescence intensity (a.u.)
GTGTAATTACAATGTAACTTGTATGTAATTACACTGTAACCGGAGTCACCTAGTGCAG	31900 fluorescence intensity (a.u.)
GTGCTGTGATTGGCCGCGCGGGATTTCCTGGGCGGGCGGGCGGAGTCACCTAGTGCAG	22600 fluorescence intensity (a.u.)
TTCTAGACTGAATTGCCACCTAAGCGCCACATCAGTGCCACGGAGTCACCTAGTGCAG	3780 fluorescence intensity (a.u.)
AGGTTAATTTCTCTGAGCTCAGCAAACCATGTTCAGTTAACGGAGTCACCTAGTGCAG	6280 fluorescence intensity (a.u.)
GTTATCTCAATCGAGCCTAAATTATGGCCCGTCACGGATACGGAGTCACCTAGTGCAG	3520 fluorescence intensity (a.u.)
GTTGCAGCTGATACAGACTTTGATTGAAGATAGAAGGCAACGGAGTCACCTAGTGCAG	18000 fluorescence intensity (a.u.)
GGCTAATTGAGGCCATGCCTGTCGTGCAGGACCAGGGCAACGGAGTCACCTAGTGCAG	36600 fluorescence intensity (a.u.)
AGAGTGTTATGTTTAATTGGCTTAGGCTTTATTTGTTCGACGGAGTCACCTAGTGCAG	4630 fluorescence intensity (a.u.)
GCTAGGCTTGGGCAAATTTGTAATTGCAATTAACCCCACGCGGAGTCACCTAGTGCAG	7260 fluorescence intensity (a.u.)
GACTAATTTTAGTCTTAGGACTAAGGCTGTGTTTGGGAACCGGAGTCACCTAGTGCAG	8970 fluorescence intensity (a.u.)
CTGTATGTGATTTGAAACCAATGTTAAGTTTCAGCATATACGGAGTCACCTAGTGCAG	6230 fluorescence intensity (a.u.)

Sequence	binding signal
CGTGATGAGTAAATGGGCTGGGTTTTGCATCTTCTTCGGCCGGAGTCACCTAGTGCAG	28500 fluorescence intensity (a.u.)
TAAATTAATAGTAAACCATCTCAATAGTATGTCTACATGGCGGAGTCACCTAGTGCAG	7750 fluorescence intensity (a.u.)
GAGATTGACGAAGTCACCACAGGCGCCTCGAGCACACTCACGGAGTCACCTAGTGCAG	10800 fluorescence intensity (a.u.)
TTGATTTGTGGAAGATAGGAGACTATAAGTTAACTTGTTTCGGAGTCACCTAGTGCAG	26900 fluorescence intensity (a.u.)
ATAATCAATTATTAAGTGACCTAATTAATACTGCAACTTACGGAGTCACCTAGTGCAG	23000 fluorescence intensity (a.u.)
TGTCTAATTGGTATCGTGAAGACTCTGAACCATTTCCATCCGGAGTCACCTAGTGCAG	35200 fluorescence intensity (a.u.)
TCTTAATTGGTCAAACTAATCATACACGAACATACAATGGCGGAGTCACCTAGTGCAG	40900 fluorescence intensity (a.u.)
ACATTAATGTGATTTCCCATTTCTACCCTATAGTTCAACACGGAGTCACCTAGTGCAG	12800 fluorescence intensity (a.u.)
GCGTGATGTGCATTGATTACCATACATGCATGCCGACCAACGGAGTCACCTAGTGCAG	31400 fluorescence intensity (a.u.)
TTATGAAAATATATTTAATTATTGATTTGATGAAACTAATCGGAGTCACCTAGTGCAG	5790 fluorescence intensity (a.u.)
TTCCTGTTTGATTTGAATGTTTACCCAATAAACTCCGGTACGGAGTCACCTAGTGCAG	12200 fluorescence intensity (a.u.)
GATAATTAAAAGGATCAGATGGACAGAGGGAGAGAGCCAACGGAGTCACCTAGTGCAG	13200 fluorescence intensity (a.u.)
GAAAATGACCAAATTATGAAAACATCCAGGCAATGGATCTCGGAGTCACCTAGTGCAG	3240 fluorescence intensity (a.u.)
CCCATCCAATCATCCCAACAACAACCAGCTGGAAAATGGACGGAGTCACCTAGTGCAG	6940 fluorescence intensity (a.u.)
AACATGATAAATTGCTAGTTTCCTACGGACGCTAAACGAGCGGAGTCACCTAGTGCAG	23300 fluorescence intensity (a.u.)
GCGATGGTTATATATCGGTTGATTGTTTGCCATCTCATAGCGGAGTCACCTAGTGCAG	6090 fluorescence intensity (a.u.)
TTTGCCACTAATTAATCTACTAATGGCTTATGATAGTCATCGGAGTCACCTAGTGCAG	10700 fluorescence intensity (a.u.)
TTAAGTAGTAATTACTTGCATTGAGAAGACATTTTCAGCTCGGAGTCACCTAGTGCAG	3870 fluorescence intensity (a.u.)
AGTAGAAAATTTGTTGACAAATTTATAGGTGGTTCCGCTTCGGAGTCACCTAGTGCAG	18200 fluorescence intensity (a.u.)
GAGACGAATTTATTAAGCCTAATTACATATGGGTTACTGTCGGAGTCACCTAGTGCAG	6220 fluorescence intensity (a.u.)
TCTGATAGGTACATACTAAAATACATATGTTCTGTTTGGACGGAGTCACCTAGTGCAG	22700 fluorescence intensity (a.u.)

Sequence	binding signal
TGTGATTATGTATAGCTGTTTGCACAGGCTAACAAACAGTCGGAGTCACCTAGTGCAG	20600 fluorescence intensity (a.u.)
GAGATTGGAAGTTAATATTCAAGGAAGAAGACCACACTAGCGGAGTCACCTAGTGCAG	14600 fluorescence intensity (a.u.)
TCGAAAATTACTAGTGAATTTCCGGGCGTGACACACGATGCGGAGTCACCTAGTGCAG	4070 fluorescence intensity (a.u.)
TCTGGATTGAATCCGGGCGTAACCGAATAAGGCCTAAGGGCGGAGTCACCTAGTGCAG	11300 fluorescence intensity (a.u.)
ATGAACGAGCTATTAAATTGTCTATAGATGAATTGGAGCTCGGAGTCACCTAGTGCAG	3510 fluorescence intensity (a.u.)
AATCATTTTATTTGACTAATACACGTCAGGATTGAATGAGCGGAGTCACCTAGTGCAG	4110 fluorescence intensity (a.u.)
TTGAATCAATGACTGATCATTGCCCAGACTGCTATTTTCCCGGAGTCACCTAGTGCAG	7090 fluorescence intensity (a.u.)
TGCAGTTACTCCAATCAGCCGTCACGTACGGTTTTGAGAGCGGAGTCACCTAGTGCAG	8420 fluorescence intensity (a.u.)
CTTTTATAATTTATGTAAATTACTTTTAGACTTTACTAAACGGAGTCACCTAGTGCAG	12500 fluorescence intensity (a.u.)
TAGTCTACTTAATAATTATTCAAATTTAATATTTCATAACCGGAGTCACCTAGTGCAG	5880 fluorescence intensity (a.u.)
TGTTAATTAAGGATAGTGTCTGCTACCTTCCAGGTTTCCGCGGAGTCACCTAGTGCAG	19200 fluorescence intensity (a.u.)
AATTGTCAATCTTGATCAAATAGAAAATATAAGATGATGACGGAGTCACCTAGTGCAG	7200 fluorescence intensity (a.u.)
TGGTGAATGGGAAATTGACAAACGACTGCTGAAGATGGGACGGAGTCACCTAGTGCAG	26500 fluorescence intensity (a.u.)
TCGATGTACCAATCTATCTGTCCATCTAGGTCTCTAAGGACGGAGTCACCTAGTGCAG	6620 fluorescence intensity (a.u.)
TTAACTTGATTTTATAAGTTGGAGGTTCAAGATTTCAGTTCGGAGTCACCTAGTGCAG	7760 fluorescence intensity (a.u.)
GACGGAGTTGATTTAATCAGTAGTAAGAGGTTGGAGGAGGCGGAGTCACCTAGTGCAG	5050 fluorescence intensity (a.u.)
AGCTCGTGATTAGCAGATTGCATTTAGTGGGTGGGCTGTCCGGAGTCACCTAGTGCAG	46200 fluorescence intensity (a.u.)
TAATTTAGATTACATATAAAACAAACAGGCCTAACTTGCCCGGAGTCACCTAGTGCAG	7840 fluorescence intensity (a.u.)
CAAATAATTAACCACATTGCCAATCTGCATTTGCGAAATGCGGAGTCACCTAGTGCAG	30100 fluorescence intensity (a.u.)
AATTATAATAAATGAAATTGCACAAAGGATTATAGTAATCCGGAGTCACCTAGTGCAG	3880 fluorescence intensity (a.u.)
AGTTAATTTGTACCAAACTCTTAAGCATGGAGGATTTGACCGGAGTCACCTAGTGCAG	23400 fluorescence intensity (a.u.)

— publication PMC7819943, “Rice protein-binding microarrays: a tool to detect cis-acting elements near promoter regions in rice”
